# Test results: the supplement of paper PMC8728848
# Some of the results follow.
# Key:
# Assay in all cases: glycan array binding signal (z-score within array); higher = stronger binding
# Details in all cases: glycan notation: IUPAC condensed, linker removed
# [1] = target: Gal(b1-4)GlcNAc(b1-2)Man(a1-3)[Gal(b1-4)GlcNAc(b1-2)Man(a1-6)]Man(b1-4)GlcNAc(b1-4)[Fuc(a1-6)]GlcNAc
# How it was run: (§1)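 Columns mapping to the same glycan were averaged after glycan names were converted to IUPAC-condensed notation. The data come from 3228 arrays in the Consortium for Functional Glycomics database, limited to those with an available protein sequence. Binding is reported as a within-array Z-score averaged across arrays of one protein sequence and across linkers.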
# [2] = target: Gal(b1-4)GlcNAc(b1-2)Man(a1-3)[Gal(b1-4)GlcNAc(b1-2)Man(a1-6)][Gal(b1-4)GlcNAc(b1-4)]Man(b1-4)GlcNAc(b1-4)[Fuc(a1-6)]GlcNAc
# How it was run: as §1
# [3] = target: Gal(b1-4)GlcNAc(b1-2)Man(a1-3)[Gal(b1-4)GlcNAc(b1-2)Man(a1-6)][GlcNAc(b1-4)]Man(b1-4)GlcNAc(b1-4)[Fuc(a1-6)]GlcNAc
# How it was run: as §1
# [4] = target: Gal(b1-4)GlcNAc(b1-2)Man(a1-3)[GlcNAc(b1-2)Man(a1-6)]Man(b1-4)GlcNAc(b1-4)GlcNAc
# How it was run: as §1
# [5] = target: Gal(b1-4)GlcNAc(b1-2)Man(a1-3)[GlcNAc(b1-4)][Gal(b1-4)GlcNAc(b1-2)Man(a1-6)]Man(b1-4)GlcNAc(b1-4)GlcNAc
# How it was run: as §1
# [6] = target: Gal(b1-4)GlcNAc(b1-2)Man(a1-3)[Man(a1-6)]Man(b1-4)GlcNAc(b1-4)GlcNAc
# How it was run: as §1
# [7] = target: Gal(b1-4)GlcNAc(b1-2)Man(a1-6)Man(b1-4)GlcNAc(b1-4)GlcNAc
# How it was run: as §1
# [8] = target: Gal(b1-4)GlcNAc(b1-2)Man(a1-6)[GlcNAc(b1-2)Man(a1-3)]Man(b1-4)GlcNAc(b1-4)GlcNAc
# How it was run: as §1
# [9] = target: Gal(b1-4)GlcNAc(b1-2)Man(a1-6)[Man(a1-3)]Man(b1-4)GlcNAc(b1-4)GlcNAc
# How it was run: as §1
# [10] = target: Gal(b1-4)GlcNAc(b1-2)[Gal(b1-4)GlcNAc(b1-4)]Man(a1-3)[Gal(b1-4)GlcNAc(b1-2)Man(a1-6)]Man(b1-4)GlcNAc(b1-4)GlcNAc
# How it was run: as §1
# [11] = target: Gal(b1-4)GlcNAc(b1-2)[Gal(b1-4)GlcNAc(b1-4)]Man(a1-3)[Gal(b1-4)GlcNAc(b1-2)[Gal(b1-4)GlcNAc(b1-6)]Man(a1-6)]Man(b1-4)GlcNAc(b1-4)GlcNAc
# How it was run: as §1
# [12] = target: Gal(b1-4)GlcNAc(b1-2)[Gal(b1-4)GlcNAc(b1-4)]Man(a1-3)[GlcNAc(b1-4)][Gal(b1-4)GlcNAc(b1-2)Man(a1-6)]Man(b1-4)GlcNAc(b1-4)GlcNAc
# How it was run: as §1
# [13] = target: Gal(b1-4)GlcNAc(b1-2)[Gal(b1-4)GlcNAc(b1-4)]Man(a1-3)[GlcNAc(b1-4)][Gal(b1-4)GlcNAc(b1-2)[Gal(b1-4)GlcNAc(b1-6)]Man(a1-6)]Man(b1-4)GlcNAc(b1-4)GlcNAc
# How it was run: as §1
# [14] = target: Gal(b1-4)GlcNAc(b1-2)[Gal(b1-4)GlcNAc(b1-6)]Man(a1-6)[Gal(b1-4)GlcNAc(b1-2)Man(a1-3)]Man(b1-4)GlcNAc(b1-4)GlcNAc
# How it was run: as §1
# [15] = target: Gal(b1-4)GlcNAc(b1-2)[Gal(b1-4)GlcNAc(b1-6)]Man(a1-6)[Gal(b1-4)GlcNAc(b1-2)Man(a1-3)]Man(b1-4)GlcNAc(b1-4)[Fuc(a1-6)]GlcNAc
# How it was run: as §1
# [16] = target: Gal(b1-4)GlcNAc(b1-2)[Gal(b1-4)GlcNAc(b1-6)]Man(a1-6)[GlcNAc(b1-4)][Gal(b1-4)GlcNAc(b1-2)Man(a1-3)]Man(b1-4)GlcNAc(b1-4)GlcNAc
# How it was run: as §1
# [17] = target: Gal(b1-4)GlcNAc(b1-2)[Gal(b1-4)GlcNAc(b1-6)]Man(a1-6)[GlcNAc(b1-4)][Gal(b1-4)GlcNAc(b1-2)[Gal(b1-4)GlcNAc(b1-4)]Man(a1-3)]Man(b1-4)GlcNAc(b1-4)[Fuc(a1-6)]GlcNAc
# How it was run: as §1
# [18] = target: Gal(b1-4)GlcNAc(b1-3)Gal(b1-3)GalNAc
# How it was run: as §1
# [19] = target: Gal(b1-4)GlcNAc(b1-3)Gal(b1-3)GlcNAc
# How it was run: as §1
binder,measurement,setting,value
Epa3to1 (Candida glabrata) (protein) MGSSHHHHHHSSGLVPRGSHMKRELSSQNPFGYPIGCSPQDVAIIPGLTMELYSYPIVSGTPPNCYDASYVDPEYPRTGYLKRKMVGKSTGVTGNLNYKYSVEKACMVKYGNLPAGYNYNEPLTVSNFTMILYGYFKAQTTGLHTFFVNADDLLYINFGAGNAFDCCKREDSKTKLGEYVAYDIWHVDSSKNKVSLFLEKDLYYPIRMFFNNREYDSSLDLSFSVNGATDQISDFSGYLYSVPDQPDTCPAHIGYDTTCR,glycan array binding signal (z-score),[1],0.104
same,glycan array binding signal (z-score),[2],-0.803
same,glycan array binding signal (z-score),[3],-0.745
same,glycan array binding signal (z-score),[4],-0.907
same,glycan array binding signal (z-score),[5],-0.291
same,glycan array binding signal (z-score),[6],3.23
same,glycan array binding signal (z-score),[7],0.027
same,glycan array binding signal (z-score),[8],-0.335
same,glycan array binding signal (z-score),[9],0.217
same,glycan array binding signal (z-score),[10],-1.26
same,glycan array binding signal (z-score),[11],-0.07
same,glycan array binding signal (z-score),[12],0.229
same,glycan array binding signal (z-score),[13],0.144
same,glycan array binding signal (z-score),[14],-0.126
same,glycan array binding signal (z-score),[15],0.071
same,glycan array binding signal (z-score),[16],-1.04
same,glycan array binding signal (z-score),[17],-0.217
same,glycan array binding signal (z-score),[18],0.387
same,glycan array binding signal (z-score),[19],-0.417
